# From the supplement of paper PMC8728848
# The other results are listed elsewhere or left out.
# B1: HHA (Hippeastrum hybrid) (protein)
# chain: MQQDCNLVLYDVDKPIWASNTGGLARDCHLNMQSDGNLVVYAPRNQVIWASNTQGENGNYVCILQKDRNVVIYGTARWATGTNIHGAGIVGVPGSAPQNTTAEMIKLVRKYLITK
# Experiments:
# Test in all cases: glycan array binding signal (z-score within array); higher = stronger binding
# Conditions in all cases: glycan notation: IUPAC condensed, linker removed
# [1] = target: Fuc(a1-3)[Gal(b1-4)]GlcNAc6S
# In short: (§1)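 Arrays were curated from the Consortium for Functional Glycomics database, 3228 in total, and kept only where the protein sequence was available. Binding is expressed as a within-array Z-score. This score was averaged across arrays of the same protein sequence at different concentrations or buffers and across linkers, and negative values can be read as non-binding.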
# [2] = target: Fuc(a1-3)[Gal3S(b1-4)]Glc
# In short: as §1
# [3] = target: Fuc(a1-3)[Gal3S(b1-4)]GlcNAc
# In short: as §1
# [4] = target: Fuc(a1-3)[Gal3S(b1-4)]GlcNAc6S
# In short: as §1
# [5] = target: Fuc(a1-3)[GalNAc(b1-4)]GlcNAc
# In short: as §1
# [6] = target: Fuc(a1-3)[GalNAc(b1-4)]GlcNAc6S
# In short: as §1
# [7] = target: Fuc(a1-4)GlcNAc
# In short: as §1
# [8] = target: Fuc(b1-3)GlcNAc
# In short: as §1
# [9] = target: Gal(a1-2)Gal
# In short: as §1
# [10] = target: Gal(a1-3)Gal
# In short: as §1
# [11] = target: Gal(a1-3)Gal(b1-3)GlcNAc
# In short: as §1
# [12] = target: Gal(a1-3)Gal(b1-3)GlcNAc(b1-2)Man
# In short: as §1
# [13] = target: Gal(a1-3)Gal(b1-3)GlcNAc(b1-2)Man(a1-3)[Gal(a1-3)Gal(b1-3)GlcNAc(b1-2)Man(a1-6)]Man(b1-4)GlcNAc(b1-4)GlcNAc
# In short: as §1
# [14] = target: Gal(a1-3)Gal(b1-3)GlcNAc(b1-3)GalNAc
# In short: as §1
# [15] = target: Gal(a1-3)Gal(b1-3)GlcNAc(b1-6)GalNAc
# In short: as §1
# [16] = target: Gal(a1-3)Gal(b1-3)[Fuc(a1-4)]GlcNAc(b1-2)Man(a1-3)[Gal(a1-3)Gal(b1-3)[Fuc(a1-4)]GlcNAc(b1-2)Man(a1-6)]Man(b1-4)GlcNAc(b1-4)GlcNAc
# In short: as §1
# [17] = target: Gal(a1-3)Gal(b1-4)Glc
# In short: as §1
# [18] = target: Gal(a1-3)Gal(b1-4)GlcNAc
# In short: as §1
# [19] = target: Gal(a1-3)Gal(b1-4)GlcNAc(b1-2)Man
# In short: as §1
# [20] = target: Gal(a1-3)Gal(b1-4)GlcNAc(b1-2)Man(a1-3)[Gal(a1-3)Gal(b1-4)GlcNAc(b1-2)Man(a1-6)]Man(b1-4)GlcNAc(b1-4)GlcNAc
# In short: as §1
# [21] = target: Gal(a1-3)Gal(b1-4)GlcNAc(b1-3)GalNAc
# In short: as §1
# [22] = target: Gal(a1-3)Gal(b1-4)GlcNAc(b1-6)GalNAc
# In short: as §1
# [23] = target: Gal(a1-3)Gal(b1-4)[Fuc(a1-3)]GlcNAc
# In short: as §1
# [24] = target: Gal(a1-3)Gal(b1-4)[Fuc(a1-3)]GlcNAc(b1-2)Man(a1-3)[Gal(a1-3)Gal(b1-4)[Fuc(a1-3)]GlcNAc(b1-2)Man(a1-6)]Man(b1-4)GlcNAc(b1-4)GlcNAc
# In short: as §1
# [25] = target: Gal(a1-3)GalNAc
# In short: as §1
# [26] = target: Gal(a1-3)[Gal(a1-4)]Gal(b1-4)GlcNAc
# In short: as §1
# [27] = target: Gal(a1-4)Gal(b1-3)GlcNAc(b1-2)Man(a1-3)[Gal(a1-4)Gal(b1-3)GlcNAc(b1-2)Man(a1-6)]Man(b1-4)GlcNAc(b1-4)GlcNAc
# In short: as §1
# [28] = target: Gal(a1-4)Gal(b1-4)Glc
# In short: as §1
# [29] = target: Gal(a1-4)Gal(b1-4)GlcNAc
# In short: as §1
# [30] = target: Gal(a1-4)Gal(b1-4)GlcNAc(b1-2)Man(a1-3)[Gal(a1-4)Gal(b1-4)GlcNAc(b1-2)Man(a1-6)]Man(b1-4)GlcNAc(b1-4)GlcNAc
# In short: as §1
# [31] = target: Gal(a1-4)Gal(b1-4)GlcNAc(b1-3)Gal(b1-4)Glc
# In short: as §1
# [32] = target: Gal(a1-4)GlcNAc
# In short: as §1
# [33] = target: Gal(a1-6)Glc
# In short: as §1
# [34] = target: Gal(b1-2)Gal
# In short: as §1
# [35] = target: Gal(b1-3)Gal
# In short: as §1
# [36] = target: Gal(b1-3)Gal(b1-4)GlcNAc
# In short: as §1
# [37] = target: Gal(b1-3)GalNAc
# In short: as §1
# [38] = target: Gal(b1-3)GalNAc(a1-3)[Fuc(a1-2)]Gal(b1-4)Glc
# In short: as §1
# [39] = target: Gal(b1-3)GalNAc(a1-3)[Fuc(a1-2)]Gal(b1-4)GlcNAc
# In short: as §1
# [40] = target: Gal(b1-3)GalNAc(b1-3)Gal
# In short: as §1
# [41] = target: Gal(b1-3)GalNAc(b1-3)Gal(a1-4)Gal(b1-4)Glc
# In short: as §1
# [42] = target: Gal(b1-3)GalNAc(b1-4)Gal(b1-4)Glc
# In short: as §1
# [43] = target: Gal(b1-3)GalNAc(b1-4)[Neu5Ac(a2-3)]Gal(b1-4)Glc
# In short: as §1
# [44] = target: Gal(b1-3)GlcNAc
# In short: as §1
# [45] = target: Gal(b1-3)GlcNAc(a1-3)Gal(b1-4)GlcNAc
# In short: as §1
binder,measurement,setting,value
B1,glycan array binding signal (z-score),[1],-0.196
same,glycan array binding signal (z-score),[2],-0.208
same,glycan array binding signal (z-score),[3],-0.22
same,glycan array binding signal (z-score),[4],-0.208
same,glycan array binding signal (z-score),[5],-0.196
same,glycan array binding signal (z-score),[6],-0.214
same,glycan array binding signal (z-score),[7],-0.214
same,glycan array binding signal (z-score),[8],-0.214
same,glycan array binding signal (z-score),[9],-0.209
same,glycan array binding signal (z-score),[10],-0.194
same,glycan array binding signal (z-score),[11],-0.203
same,glycan array binding signal (z-score),[12],-0.209
same,glycan array binding signal (z-score),[13],-0.16
same,glycan array binding signal (z-score),[14],-0.104
same,glycan array binding signal (z-score),[15],-0.203
same,glycan array binding signal (z-score),[16],0.654
same,glycan array binding signal (z-score),[17],-0.201
same,glycan array binding signal (z-score),[18],-0.171
same,glycan array binding signal (z-score),[19],-0.205
same,glycan array binding signal (z-score),[20],1.42
same,glycan array binding signal (z-score),[21],-0.156
same,glycan array binding signal (z-score),[22],-0.209
same,glycan array binding signal (z-score),[23],-0.216
same,glycan array binding signal (z-score),[24],-0.182
same,glycan array binding signal (z-score),[25],0.093
same,glycan array binding signal (z-score),[26],-0.172
same,glycan array binding signal (z-score),[27],0.269
same,glycan array binding signal (z-score),[28],-0.192
same,glycan array binding signal (z-score),[29],-0.183
same,glycan array binding signal (z-score),[30],0.121
same,glycan array binding signal (z-score),[31],-0.203
same,glycan array binding signal (z-score),[32],-0.153
same,glycan array binding signal (z-score),[33],-0.21
same,glycan array binding signal (z-score),[34],-0.209
same,glycan array binding signal (z-score),[35],-0.212
same,glycan array binding signal (z-score),[36],-0.195
same,glycan array binding signal (z-score),[37],0.496
same,glycan array binding signal (z-score),[38],-0.206
same,glycan array binding signal (z-score),[39],-0.21
same,glycan array binding signal (z-score),[40],-0.198
same,glycan array binding signal (z-score),[41],-0.199
same,glycan array binding signal (z-score),[42],-0.207
same,glycan array binding signal (z-score),[43],-0.209
same,glycan array binding signal (z-score),[44],-0.205
same,glycan array binding signal (z-score),[45],-0.214
